The whole screen tested about 390,000 compounds, of which about 360 (0.092%) were called active. This list was built around the results that the source calls inconclusive (neither active nor inactive); the mix of calls is not that of the screen. The call rests on the fitted dose curve; in most records, active means well fitted inhibition curve with a large enough effect; inconclusive means small, poorly fitted or top-dose-only effect; inactive means no such curve, though single readings can be large or run the other way. Potencies of inconclusive entries are doubtful fits and often do not repeat.
Target: Isocitrate dehydrogenase [NADP] cytoplasmic (Homo sapiens) (UniProt O75874)
Test: qHTS for Inhibitors of mutant isocitrate dehydrogenase 1 (IDH1): qHTS; further: nearly all actives have a fitted effect of over 65% in size
Conditions: IDH1-R132H enzyme, NADPH consumption, diaphorase/resazurin fluorescence; series mostly up to 76.6 µM; activity change, negative = inhibition: at the top concentration
Source text: Unbiased genomic sequencing for 22 glioma genomes found recurrent mutation of isocitrate dehydrogenase 1 (IDH1) on chromosome 2q33-a gene encoding the cytosolic isoform of IIDH1associated with the tricarboxylic acid cycle (TCA) that catalyzes the oxidative decarboxylation of isocitrate, yielding alpha-ketoglutarate and CO2 via NADP+ to NADPH conversion. Subsequent studies confirmed the recurrent IDH mutations in up to 70% of secondary gliomas and in 10% of AML cases. […] This in effect defines IDH1 as an oncogene, and provides an extraordinary opportunity to discover chemical probes against mutant IDH1 that may translate into much needed new therapies for glioma and AML patients. […] NIH Chemical Genomics Center [NCGC] NIH Molecular Libraries Probe Centers Network [MLPCN] MLPCN Grant: DA032129 Assay Submitter (PI): Lenny Dang, Agios Pharmaceuticals
IDH1-R132H (0.5 ug/mL) was dispensed into black, solid-bottom 1536-well plates at 3 uL/well in 20 mM Tris-HCl (pH 7.5), 150 mM NaCl, 10 mM MgCl2, 4 mM beta-ME, and 0.05% protease-free BSA. Then, 23 nL of compounds or DMSO were delivered to each well using a pin tool. A pre-read was run on the Viewlux to identify fluorescent compounds (540 nm excitation filter, 598 nm emission filter, bodipy mirror and 2 second exposure). After 30 minutes of incubation with compound, 3 uL of substrate mix were dispensed (0.016 mM NADPH, 2 mM alpha-KG, 20 mM Tris-HCl (pH 7.5), 150 mM NaCl, 10 mM MgCl2, and 0.05% protease-free BSA). Plates were spun for 1 min at 1000xg and incubated at room temperature for 80 min. Then 1.5 uL of each detection reagent component for the coupling system were added (0.12 mg/mL diaphorase and 0.072 mM resazurin, each in 20 mM Tris-HCl (pH 7.5), 150 mM NaCl, 10 mM MgCl2, and 0.05% protease-free BSA ) The protein, substrate and two detection components were maintained at 4 °C throughout the screen. Additionally, the substrate and resazurin reagents were protected from light. The plates were measured on an Envision plate reader for fluorescence signal using a 540 nm excitation filter and 590 nm emission filter with 10 flashes. 1x and 0x (no-enzyme) IDH1-R132H enzyme control were used to normalize %Activity of identified inhibitors; 0x enzyme values corresponded to 100% Activity (full inhibition), while 1x IDH1-R132H enzyme values were used to normalize 0%Activity (no inhibition). Concentration-response curves were fitted to the signals arising from the resulting fluorescence. The concentration-effect curves were then classified based on curve quality (r2), response magnitude and degree of measured activity, and compounds were subsequently categorized based on their curve class. […] Keywords: isocitrate dehydrogenase, IDH1, IDH1-R132H, MLSMR, MLPCN, NIH Roadmap, qHTS, NCGC
Potency means the concentration at half of the fitted maximal effect; tags describe the fitted curve by direction and shape.

Compound	Potency	activity change, negative = inhibition
Cc1nc2cc(C(F)(F)F)ccc2n1C1CCN(Cc2nnnn2Cc2ccc3c(c2)OCO3)CC1	inconclusive: 13.1 µM [inhibitor, full curve]	
CC(=O)c1ccc2c(c1)C1C(Cl)C(Sc3ccccc3[N+](=O)[O-])CC1C(C(=O)O)N2 (stereo not drawn)	inconclusive: 52.1 µM [inhibitor, partial curve]	
O=C(O)c1ccc2c(c1)C1C(Cl)C(Sc3ccccc3[N+](=O)[O-])CC1C(c1cccc([N+](=O)[O-])c1)N2 (stereo not drawn)	inconclusive: 50.1 µM [inhibitor, single point]	
Cc1ccc(N2C(=O)NC(=O)/C(=C\c3cc(C)n(-c4sc5c(c4C#N)CCCC5)c3C)C2=O)cc1	inconclusive: 23.3 µM [inhibitor, full curve, poor fit]	
COC(=O)c1ccc(NC(=O)CSc2nc3ccc(N4C(=O)C5C6C=CC(C6)C5C4=O)cc3s2)cc1 (stereo not drawn)		inactive: -0.538%
Clc1ccc(COC(Cn2ccnc2)c2ccc(Cl)cc2Cl)cc1 (stereo not drawn)	inconclusive: 50.1 µM [inhibitor, partial curve, poor fit]	
CN1C(=O)C(Cc2ccsc2)C(=O)N(C)C1=O	inconclusive: 58.5 µM [inhibitor, single point]	
C=CCN1C(=O)/C(=C/c2ccc3c(c2)CCCN3CCC)C(=O)NC1=S	inconclusive: 50.1 µM [inhibitor, single point]	
O=C1NC(=O)C(=Cc2ccc(-c3ccc(S(=O)(=O)N4CCOCC4)cc3)o2)C(=O)N1	inconclusive: 70.8 µM [inhibitor, single point]	
CCOc1cc(CNCCc2cccc(F)c2)ccc1OC		inactive: -6.98%
CC(C)OC(=O)c1c(N)n(CC2CCCO2)c2nc3ccccc3nc12 (stereo not drawn)		inactive: 1.03%
O=C(COC(=O)c1ccc(O)cc1)Nc1ccc(Cl)cc1C(=O)c1ccccc1	active: 58.5 µM	
CCOc1ccccc1Oc1coc2cc(OC(=O)c3ccco3)ccc2c1=O	inconclusive: 32.9 µM [inhibitor, partial curve]	
COc1ccc(-c2nc(CN3C(=O)CN=C(c4ccccc4Cl)c4cc(Cl)ccc43)c(C)o2)cc1OC	inconclusive: 63.1 µM [inhibitor, single point]	
O=c1c2ccccc2[se]n1-c1ccccc1	inconclusive: 50.1 µM [inhibitor, partial curve, poor fit]	
ClCCN1CCN(c2ccnc3cc(Cl)ccc23)CC1	inconclusive: 52.1 µM [inhibitor, single point]	
Cc1ccc(N2C(=O)NC(=O)/C(=C\c3ccc(N4CCOCC4)cc3)C2=O)cc1		inactive: -1.69%
c1ccc(-c2ccc(C(c3ccccc3)n3ccnc3)cc2)cc1 (stereo not drawn)	inconclusive: 70.8 µM [inhibitor, single point]	
CC(C)CN(CC(C)C)c1ccc(C=C2C(=O)NC(=S)NC2=O)cc1[N+](=O)[O-]	inconclusive: 41.4 µM [inhibitor, partial curve]	

Compound	Potency	activity change, negative = inhibition
OC(COCc1ccc(Cl)cc1)CN1CC=C(c2ccccc2)CC1 (stereo not drawn)	inactive	
COC(=O)C1=C(C)NC(=S)NC1c1ccc(N(CCCl)CCCl)cc1Cl (stereo not drawn)	inconclusive: 23.3 µM [inhibitor, partial curve]	
CCCCOc1ccc(CN2C(=O)C(=O)c3cc(C)ccc32)cc1OC	inconclusive: 44.7 µM [inhibitor, single point]	
CCCCOc1ccc(CC2C(=O)N(C)C(=O)N(C)C2=O)cc1	inconclusive: 26.1 µM [inhibitor, full curve]	
CCOC(=O)[C@]12Cc3cc(OC)c(OC)cc3[C@H]1N(Cc1ccccc1)C(=O)c1ccccc12	inconclusive: 44.7 µM [inhibitor, partial curve, poor fit]	
O=c1oc2ccccc2c(O)c1C(c1ccc([N+](=O)[O-])cc1)c1c(O)c2ccccc2oc1=O	inconclusive: 58.5 µM [inhibitor, single point]	
Cc1cccc(N2C(=O)NC(=O)/C(=C\c3cc(C)n(-c4sc5c(c4C#N)CCCC5)c3C)C2=O)c1C	inconclusive: 58.5 µM [inhibitor, single point]	
Cc1ccc(NS(=O)(=O)c2ccc(Cl)c(N=Nc3c(O)[nH]c(=O)[nH]c3=O)c2)cc1Cl	inconclusive: 58.5 µM [inhibitor, partial curve, poor fit]	
O=C1NC(=O)N(c2ccc(F)cc2)C(=O)/C1=C/c1ccc2c(c1)CCCN2Cc1ccccc1	inconclusive: 41.4 µM [inhibitor, partial curve]	
CC1=CC(C)CC(C)OC(=O)CC(c2ccc(O)cc2)NC(=O)C(Cc2c(Br)[nH]c3ccccc23)N(C)C(=O)C(C)NC(=O)C(C)C1 (stereo not drawn)		inactive: -4.65%
CCOC(=O)c1c(/N=C/c2c(O)n(-c3cccc(C)c3)c(=O)[nH]c2=O)sc2c1CCCC2	inconclusive: 14.7 µM [inhibitor, full curve]	
Cc1cccc(-n2c(/C=C/c3cn(C)c4ccccc34)nc3ccccc3c2=O)c1	inconclusive: 63.1 µM [inhibitor, single point]	
CCOC(=O)c1c(-n2c(C)cc(/C=C3/C(=O)NC(=O)N(CC)C3=O)c2C)sc2c1CCCC2	inconclusive: 23.3 µM [inhibitor, single point]	
CCCCn1c(O)c(C(C)=NCCc2ccccc2)c(=O)[nH]c1=O		inactive: 3.77%
O=c1c2ccccc2nc(/C=C/c2ccc(O)cc2)n1-c1ccc(O)cc1	inconclusive: 58.5 µM [inhibitor, single point]	
CC12Cc3cnoc3C=C1CCC1C2CCC2(C)C1CCC2(C)O (stereo not drawn)	inconclusive: 58.5 µM [inhibitor, single point]	
CN1C(=O)C(=Cc2ccc(SC3CCCCC3)o2)C(=O)N(C)C1=O	inconclusive: 52.1 µM [inhibitor, single point]	
Cc1ccc(-n2nc3c(=O)n(CC(=O)NCC(C)c4ccccc4)nc(C)c3c2C)cc1 (stereo not drawn)	inconclusive: 39.8 µM [inhibitor, partial curve]	
CC(=O)O/C(=C1\CC2C3CC=C4CC(OC(C)=O)CCC4(C)C3CCC2(C)C1=O)C(F)(F)F (stereo not drawn)		inactive: -0.733%

Reference: PubChem BioAssay AID602179 (National Center for Advancing Translational Sciences (NCATS), 2012)
